# Reference: the supplement of paper PMC8728848
# Some of the results follow.
# B1: AT1G73650(15) (Arabidopsis thaliana), F4HRY1 (protein)
# chain: MGTVLDSHFLALTAIVTVIYQFIFFVITALFKFDQVTDFAGSTNFVILAVLTLVLKASWHFRQIVLTLLVVVWGLRLGIFLLMETRILQWGEDRRFDEQRGNIVRLIIFWTLQAVWVWTVSLPLTLVNASDGGGSLKPADVIGWTMETWVFGFLIEAAADQQKLSFKNSPENRGKWCDVGVWKYSRHPNYFGEMETLLWWGIFVAASPVLEGAEYLVIFGPLFLTLLLLFVSGIPLLEASADKKHGNSGAYRSYKKTTSPLILFPRGVYGNLPGWFKTVFLFEFPFYSRNLPQEGRLQNSKEKEVKDD
# Legend:
# Assay in all cases: glycan array binding signal (z-score within array); higher = stronger binding
# Details in all cases: glycan notation: IUPAC condensed, linker removed
# [1] = biological target: GalNAc(a1-3)GalNAc(b1-3)Gal(a1-4)Gal(b1-4)GlcNAc
# Summary of the method: (§1)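 Arrays were curated from the Consortium for Functional Glycomics database, 3228 in total, and kept only where the protein sequence was available. Binding is expressed as a within-array Z-score. This score was averaged across arrays of the same protein sequence at different concentrations or buffers and across linkers, and negative values can be read as non-binding.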
# [2] = biological target: GalNAc(b1-3)Gal
# Summary of the method: as §1
# [3] = biological target: GalNAc(b1-3)Gal(a1-4)Gal(b1-4)GlcNAc
# Summary of the method: as §1
# [4] = biological target: GalNAc(b1-3)Gal(a1-4)Gal(b1-4)GlcNAc(b1-3)Gal(b1-4)Glc
# Summary of the method: as §1
# [5] = biological target: GalNAc(b1-3)Gal(a1-6)Gal(b1-4)Glc
# Summary of the method: as §1
# [6] = biological target: GalNAc(b1-3)GalNAc
# Summary of the method: as §1
# [7] = biological target: GalNAc(b1-3)GlcNAc
# Summary of the method: as §1
# [8] = biological target: GalNAc(b1-4)Gal(b1-4)Glc
# Summary of the method: as §1
# [9] = biological target: GalNAc(b1-4)GlcNAc
# Summary of the method: as §1
# [10] = biological target: GalNAc(b1-4)GlcNAc(b1-2)Man
# Summary of the method: as §1
# [11] = biological target: GalNAc(b1-4)GlcNAc(b1-2)Man(a1-3)[GalNAc(b1-4)GlcNAc(b1-2)Man(a1-6)]Man(b1-4)GlcNAc(b1-4)GlcNAc
# Summary of the method: as §1
# [12] = biological target: GalNAc(b1-4)GlcNAc(b1-3)GalNAc(b1-4)GlcNAc
# Summary of the method: as §1
# [13] = biological target: GalNAc(b1-4)GlcNAc6S
# Summary of the method: as §1
# [14] = biological target: GalNAc(b1-6)GalNAc
# Summary of the method: as §1
# [15] = biological target: GalNAc3S(b1-4)GlcNAc
# Summary of the method: as §1
# [16] = biological target: GalNAc3S(b1-4)GlcNAc3S
# Summary of the method: as §1
# [17] = biological target: GalNAc3S(b1-4)[Fuc(a1-3)]GlcNAc
# Summary of the method: as §1
# [18] = biological target: GalNAc4S6S(b1-4)GlcNAc
# Summary of the method: as §1
# [19] = biological target: GalNAc6S(b1-4)GlcNAc
# Summary of the method: as §1
# [20] = biological target: Glc(a1-4)Glc
# Summary of the method: as §1
# [21] = biological target: Glc(a1-4)Glc(a1-4)Glc(a1-4)Glc
# Summary of the method: as §1
# [22] = biological target: Glc(a1-6)Glc(a1-6)Glc
# Summary of the method: as §1
# [23] = biological target: Glc(a1-6)Glc(a1-6)Glc(a1-6)Glc
# Summary of the method: as §1
# [24] = biological target: Glc(b1-4)Glc
# Summary of the method: as §1
# [25] = biological target: Glc(b1-6)Glc
# Summary of the method: as §1
# [26] = biological target: GlcA(b1-3)Gal
# Summary of the method: as §1
# [27] = biological target: GlcA(b1-3)GlcNAc
# Summary of the method: as §1
# [28] = biological target: GlcA(b1-6)Gal
# Summary of the method: as §1
# [29] = biological target: GlcA3S(b1-3)Gal(b1-4)GlcNAc(b1-2)Man
# Summary of the method: as §1
# [30] = biological target: GlcA3S(b1-3)Gal(b1-4)GlcNAc(b1-3)Gal(b1-4)Glc
# Summary of the method: as §1
# [31] = biological target: GlcNAc(a1-3)Gal(b1-4)GlcNAc
# Summary of the method: as §1
# [32] = biological target: GlcNAc(a1-4)Gal(b1-3)GlcNAc
# Summary of the method: as §1
# [33] = biological target: GlcNAc(a1-4)Gal(b1-4)GalNAc
# Summary of the method: as §1
# [34] = biological target: GlcNAc(a1-4)Gal(b1-4)GlcNAc
# Summary of the method: as §1
# [35] = biological target: GlcNAc(a1-4)Gal(b1-4)GlcNAc(b1-3)Gal(b1-4)Glc
# Summary of the method: as §1
# [36] = biological target: GlcNAc(a1-4)Gal(b1-4)GlcNAc(b1-3)Gal(b1-4)GlcNAc
# Summary of the method: as §1
# [37] = biological target: GlcNAc(a1-4)Gal(b1-4)GlcNAc(b1-3)Gal(b1-4)GlcNAc(b1-3)Gal(b1-4)GlcNAc
# Summary of the method: as §1
# [38] = biological target: GlcNAc(a1-4)Gal(b1-4)GlcNAc(b1-3)Gal(b1-4)[Fuc(a1-3)]GlcNAc(b1-3)Gal(b1-4)[Fuc(a1-3)]GlcNAc
# Summary of the method: as §1
binder,measurement,setting,value
B1,glycan array binding signal (z-score),[1],-0.431
same,glycan array binding signal (z-score),[2],-0.641
same,glycan array binding signal (z-score),[3],1.52
same,glycan array binding signal (z-score),[4],-0.077
same,glycan array binding signal (z-score),[5],-0.625
same,glycan array binding signal (z-score),[6],-0.141
same,glycan array binding signal (z-score),[7],1.4
same,glycan array binding signal (z-score),[8],2.36
same,glycan array binding signal (z-score),[9],4.01
same,glycan array binding signal (z-score),[10],-0.666
same,glycan array binding signal (z-score),[11],0.151
same,glycan array binding signal (z-score),[12],0.643
same,glycan array binding signal (z-score),[13],-0.402
same,glycan array binding signal (z-score),[14],-0.297
same,glycan array binding signal (z-score),[15],-0.255
same,glycan array binding signal (z-score),[16],-0.562
same,glycan array binding signal (z-score),[17],-0.634
same,glycan array binding signal (z-score),[18],-0.561
same,glycan array binding signal (z-score),[19],0.513
same,glycan array binding signal (z-score),[20],-0.58
same,glycan array binding signal (z-score),[21],-0.08
same,glycan array binding signal (z-score),[22],-0.619
same,glycan array binding signal (z-score),[23],-0.258
same,glycan array binding signal (z-score),[24],0.1
same,glycan array binding signal (z-score),[25],-0.474
same,glycan array binding signal (z-score),[26],-0.423
same,glycan array binding signal (z-score),[27],-0.467
same,glycan array binding signal (z-score),[28],-0.633
same,glycan array binding signal (z-score),[29],-0.382
same,glycan array binding signal (z-score),[30],-0.496
same,glycan array binding signal (z-score),[31],-0.665
same,glycan array binding signal (z-score),[32],-0.337
same,glycan array binding signal (z-score),[33],-0.413
same,glycan array binding signal (z-score),[34],-0.467
same,glycan array binding signal (z-score),[35],-0.349
same,glycan array binding signal (z-score),[36],-0.326
same,glycan array binding signal (z-score),[37],-0.488
same,glycan array binding signal (z-score),[38],-0.047
